Assay results published in the supplement of paper PMC9938546.
Where a name gives a salt, the structure may show the parent alone. The list shows a part of the results. Most values come without repeats; read them as rough.

The compounds below were run on HCT116-GFP (assay: HCT116-GFP viability (GFP intensity) relative to untreated control, monoculture; higher = less cancer cell killing). Conditions: culture: HCT116-GFP monoculture; 10 µM; 72 h.
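Further: viability estimated indirectly by image-based GFP quantification with live-cell imaging of the constitutively GFP-expressing human colorectal cancer line, no immune cells added.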

Row | Compound | HCT116-GFP viability
1 | CC(=O)OC1CN2CCC1CC2 (stereo not drawn) [Aceclidine Hydrochloride] | 119%
2 | CC(CCc1ccccc1)NC(C)C(O)c1ccc(O)cc1 (stereo not drawn) [Nylidrin] | 95.3%
3 | COc1cccc(C2(O)CCCCC2CN(C)C)c1 (stereo not drawn) [Tramadol hydrochloride] | 112%
4 | CCN[C@@H](C)Cc1cccc(C(F)(F)F)c1 [Dexfenfluramine hydrochloride] | 113%
5 | CC[C@H](C)[C@H]1O[C@]2(C=C[C@@H]1C)C[C@@H]1C[C@@H](C/C=C(\C)[C@@H](O[C@H]3C[C@H](OC)[C@@H](O[C@H]4C[C@H](OC)[C@@H](O)[C@H](C)O4)[C@H](C)O3)[C@@H](C)/C=C/C=C3\CO[C@@H]4[C@H](O)C(C)=C[C@@H](C(=O)O1)[C@]34O)O2.CO[C@H]1C[C@H](O[C@H]2[C@H](C)O[C@@H](O[C@@H]3/C(C)=C/C[C@@H]4C[C@@H](C[C@]5(C=C[C@H](C)[C@@H](C(C)C)O5)O4)OC(=O)[C@@H]4C=C(C)[C@@H](O)[C@H]5OC/C(=C\C=C\[C@@H]3C)[C@]54O)C[C@@H]2OC)O[C@@H](C)[C@@H]1O [Avermectin B1] | 28.4%
6 | C[C@]12CCC(=O)C=C1CC[C@@H]1[C@@H]2C(=O)C[C@]2(C)C(=O)CC[C@@H]12 [Adrenosterone] | 105%
7 | C[N+]1(C)CCOC(O)(c2ccc(-c3ccc(C4(O)C[N+](C)(C)CCO4)cc3)cc2)C1 (stereo not drawn) [Hemicholinium bromide] | 94.1%
8 | CC[C@@H](C(N)=O)N1CCCC1=O [Levetiracetam] | 98.5%
9 | COc1ccc(C(=O)N2CCCC2=O)cc1 [Aniracetam] | 92.8%
10 | Cc1cc(C(C#N)c2ccc(Cl)cc2)c(Cl)cc1NC(=O)c1cc(I)cc(I)c1O (stereo not drawn) [Closantel] | 58.4%
11 | C[C@@H]1C[C@@H]([C@H](O)CC2CC(=O)NC(=O)C2)C(=O)[C@@H](C)C1 [Cycloheximide] | 6.22%
12 | CC[C@@H](CO)NC(=O)[C@@H]1C=C2c3cccc4[nH]cc(c34)C[C@H]2N(C)C1 [Methylergometrine maleate] | 91.2%
13 | O=c1[nH]oc2c1CCNC2 [THIP Hydrochloride] | 114%
14 | CC(N)C(O)c1ccccc1 (stereo not drawn) [Phenylpropanolamine hydrochloride] | 82.3%
15 | O=C(CCCN1CCC2(CC1)C(=O)NCN2c1ccccc1)c1ccc(F)cc1 [Spiperone] | 55.4%
16 | O=[N+]([O-])O[C@H]1CO[C@H]2[C@@H]1OC[C@H]2O[N+](=O)[O-] [Isosorbide dinitrate] | 84.1%
17 | C=C1CC[C@@]2(O)[C@H]3Cc4ccc(O)c5c4[C@@]2(CCN3CC2CC2)[C@H]1O5 [Nalmefene hydrochloride] | 102%
18 | NCC1(CC(=O)O)CCCCC1 [Gabapentin] | 99.3%
19 | CC(O)(CS(=O)(=O)c1ccc(F)cc1)C(=O)Nc1ccc(C#N)c(C(F)(F)F)c1 (stereo not drawn) [Bicalutamide] | 86.5%
20 | CCOC(=O)c1cncn1[C@H](C)c1ccccc1 [Etomidate] | 95.4%
21 | C[C@]12CC[C@H](O)C[C@H]1CC[C@@H]1[C@@H]2CC[C@]2(C)[C@@H](C3=CC(=O)OC3)CC[C@]12O [Digitoxigenin] | 4.06%
22 | CC(C)c1cccc(C(C)C)c1O [Propofol] | 98.7%
23 | Oc1ccc2c3c1O[C@H]1[C@@H](O)CC[C@@]4(O)[C@@H](C2)N(CC2CCC2)CC[C@]314 [Nalbuphine hydrochloride] | 96.5%
24 | CC(=O)O[C@H]1CC[C@@]2(C)C(=CC[C@@H]3[C@@H]2CC[C@]2(C)C(=O)CC[C@@H]32)C1 [Dehydroisoandosterone 3-acetate] | 97.7%
25 | O=C(NCNC(=O)NC1C(=O)NC(=O)N1CO)NC1C(=O)NC(=O)N1CO (stereo not drawn) [Imidurea] | 104%
26 | CN1C[C@H](CNC(=O)OCc2ccccc2)C[C@@H]2c3cccc4c3c(cn4C)C[C@H]21 [Metergoline] | 71.1%

Row | Compound | HCT116-GFP viability
27 | COc1cc2c(c(OC)c1OC)-c1ccc(OC)c(=O)cc1[C@@H](NC(C)=O)CC2 [Colchicine] | 9.33%
28 | CC[N+]1(C)CCCC(OC(=O)C(O)(c2ccccc2)c2ccccc2)C1 (stereo not drawn) [Pipenzolate bromide] | 115%
29 | c1ccc2c(c1)OCC(C1=NCCN1)O2 (stereo not drawn) [Idazoxan hydrochloride] | 40.3%
30 | CCCCCC[C@H]1C(=O)O[C@H](C)[C@H](NC(=O)c2cccc(NC=O)c2O)C(=O)O[C@@H](C)[C@@H]1OC(=O)CC(C)C [Antimycin A] | 38.6%
31 | O=c1c2ccccc2[se]n1-c1ccccc1 [Ebselen] | 111%
32 | c1ccc2c(c1)Nc1ccccc1S2 [Phenothiazine] | 97%
33 | CC(=O)O[C@H]1C[C@@H]2CC[C@@H]3[C@H](CC[C@@]4(C)[C@H]3C[C@H]([N+]3(C)CCCCC3)[C@@H]4OC(C)=O)[C@@]2(C)C[C@@H]1[N+]1(C)CCCCC1 [Pancuronium bromide] | 47.9%
34 | C=CCN1CC[C@]23c4c5ccc(O)c4O[C@H]2C(=O)CC[C@@]3(O)[C@H]1C5 [Naloxone hydrochloride] | 99.7%
35 | CCCC(C)C1(CC)C(=O)NC(=O)NC1=O (stereo not drawn) [Pentobarbital] | 90.7%
36 | C[C@]12CCC(=O)C=C1C=C[C@@H]1[C@@H]2CC[C@@]2(C)[C@H]1CC[C@@]2(O)CCC(=O)O [Canrenoic acid potassium salt] | 98.5%
37 | C(#CCN1CCCC1)CN1CCCC1 [Tremorine dihydrochloride] | 96.9%
38 | CN1[C@@H]2C[C@@H](OC(=O)[C@H](CO)c3ccccc3)C[C@H]1[C@@H]1O[C@@H]12 [Scopolamine hydrochloride] | 108%
39 | C#C[C@]1(O)CC[C@H]2[C@@H]3CCC4=CC(=O)CCC4=C3C=C[C@@]21CC [Gestrinone] | 74.8%
40 | N[C@@H]1C[C@H]1c1ccccc1 [Tranylcypromine hydrochloride] | 94%
41 | NCC(CC(=O)O)c1ccc(Cl)cc1 (racemic) [Baclofen (R,S)] | 105%
42 | CN[C@@H]1[C@@H](O)[C@@H](O[C@@H]2[C@@H](O)[C@H](O[C@H]3O[C@H](CN)CC[C@H]3N)[C@@H](N)C[C@H]2N)OC[C@]1(C)O.CN[C@@H]1[C@@H](O)[C@@H](O[C@@H]2[C@@H](O)[C@H](O[C@H]3O[C@H]([C@@H](C)N)CC[C@H]3N)[C@@H](N)C[C@H]2N)OC[C@]1(C)O.CN[C@@H]1[C@@H](O)[C@@H](O[C@@H]2[C@@H](O)[C@H](O[C@H]3O[C@H]([C@@H](C)NC)CC[C@H]3N)[C@@H](N)C[C@H]2N)OC[C@]1(C)O [Gentamicine sulfate] | 113%
43 | O=C1CC[C@@]2(O)[C@H]3Cc4ccc(O)c5c4[C@@]2(CCN3CC2CC2)[C@H]1O5 [Naltrexone hydrochloride dihydrate] | 114%
44 | CN1CCC2(C)c3cc(O)ccc3N(C)C12 (single isomer, unassigned; (-)) [(-)-Eseroline fumarate salt] | 83%
45 | CC(NC(C)(C)C)C(=O)c1cccc(Cl)c1 (stereo not drawn) [Bupropion hydrochloride] | 107%
46 | NCCCNCCSP(=O)(O)O [Amifostine] | 87%
47 | CC1OC(OC2/C=C/C=C/C=C/C=C/CC/C=C/C=C/[C@H](C)[C@@H](O)[C@@H](C)[C@H](C)OC(=O)CC(O)CC(O)CC(O)CCC(O)C(O)C[C@]3(O)CC(O)C(C(=O)O)C(C2)O3)C(O)C(N)C1O (stereo partly drawn) [Nystatine] | 93.2%
48 | O=c1[nH]c2ccccc2n1C1CCN(CCCC(c2ccc(F)cc2)c2ccc(F)cc2)CC1 [Pimozide] | 41%
49 | C#CCN(C)[C@H](C)Cc1ccccc1 [Selegiline hydrochloride] | 106%
50 | C[C@@H]1O[C@@H](O[C@@H]2C=C3CC[C@@H]4[C@H](CC[C@]5(C)[C@@H](c6ccc(=O)oc6)CC[C@]45O)[C@@]3(C)CC2)[C@H](O)[C@H](O)[C@H]1O [Proscillaridin A] | 3.85%
51 | CN(C)C(=O)Oc1ccc[n+](C)c1 [Pyridostigmine iodide] | 75.6%
52 | C[C@]12CC[C@@H](O)C[C@H]1CC[C@@H]1[C@@H]2CC[C@]2(C)C(=O)CC[C@@H]12 [3-alpha-Hydroxy-5-beta-androstan-17-one] | 103%

Row | Compound | HCT116-GFP viability
53 | COc1ccc(C(CN(C)C)C2(O)CCCCC2)cc1 (stereo not drawn) [Venlafaxine] | 102%
54 | CNC(=O)Oc1ccc2c(c1)[C@]1(C)CCN(C)[C@@H]1N2C [Eserine hemisulfate salt] | 81.3%
55 | CN(C)C(=O)Oc1cccc([N+](C)(C)C)c1 [Neostigmine bromide] | 95.3%
56 | CC(C)(N)Cc1ccccc1 [Phentermine hydrochloride] | 88.4%
57 | CCNCC(O)c1cccc(O)c1 (stereo not drawn) [Etilefrine hydrochloride] | 90.3%
58 | CCC1=C[C@H]2CN3CCc4c([nH]c5ccccc45)[C@](C(=O)OC)(C2)[C@H]13 [Catharanthine] | 99.7%
59 | CC(C)C[C@H]1C(=O)N2CCC[C@H]2[C@]2(O)O[C@](NC(=O)[C@@H]3C=C4c5cccc6[nH]c(Br)c(c56)C[C@H]4N(C)C3)(C(C)C)C(=O)N12 [Bromocryptine mesylate] | 57.6%
60 | CN1[C@@H]2CC[C@H]1C[C@@H](OC(=O)C(CO)c1ccccc1)C2 (stereo partly drawn) [Atropine sulfate monohydrate] | 92.1%
61 | C[C@]12CCC(=O)C(O)=C1CC[C@@H]1[C@@H]2CC[C@]2(C)C(=O)CC[C@@H]12 [Formestane] | 109%
62 | CNC(C)(C)Cc1ccccc1 [Mephentermine hemisulfate] | 144%
63 | O=P1(N(CCCl)CCCl)NCCCO1 (stereo not drawn) [Cyclophosphamide] | 101%
64 | C[C@]12COC(=O)C[C@@H]1CC[C@@H]1[C@@H]2CC[C@@]2(C)[C@H]1CC[C@]2(C)O [Oxandrolone] | 96.9%
65 | CN1C(=O)CCS(=O)(=O)C1c1ccc(Cl)cc1 (stereo not drawn) [Chlormezanone] | 98.5%
66 | C[C@]12C/C(=C/O)C(=O)C[C@@H]1CC[C@@H]1[C@@H]2CC[C@@]2(C)[C@H]1CC[C@]2(C)O [Oxymetholone] | 94.9%
67 | CC(=O)[C@H]1CC[C@H]2[C@@H]3CC[C@H]4C[C@H](O)CC[C@]4(C)[C@H]3C(=O)C[C@]12C [Alfaxalone] | 94.8%
68 | C=C1C[C@@H]2[C@H](CC[C@]3(C)C(=O)CC[C@@H]23)[C@@]2(C)C=CC(=O)C=C12 [Exemestane] | 84.4%
69 | CCCC(C)(COC(N)=O)COC(=O)NC(C)C (stereo not drawn) [Carisoprodol] | 89%
70 | CCC1(C)CC(=O)NC(=O)C1 [Bemegride] | 75.4%
71 | C[N+]1(C)CCCC(OC(=O)C(O)(c2ccccc2)c2ccccc2)C1 (stereo not drawn) [Mepenzolate bromide] | 91.9%
72 | OC(c1ccccc1)(c1ccccc1)C1CCNCC1 [Azacyclonol] | 91%
73 | NC(=O)OCCCc1ccccc1 [Phenprobamate] | 86.6%
74 | O=C(CCCN1CCC(n2c(=O)[nH]c3ccccc32)CC1)c1ccc(F)cc1 [Benperidol] | 74.7%
75 | C=CCC1(CC(C)C)C(=O)NC(=O)NC1=O [Butalbital] | 99.8%
76 | C[C@@H]1CN([C@H]2CC[C@](C#N)(c3ccc(F)cc3)CC2)CC[C@]1(C(=O)O)c1ccccc1 [Levocabastine hydrochloride] | 93.5%
77 | COc1ccc(OC)c(C(O)C(C)N)c1 (stereo not drawn) [Methoxamine hydrochloride] | 92.4%
78 | CCC(=O)O[C@H]1CC[C@H]2[C@@H]3CCC4=CC(=O)CC[C@]4(C)[C@H]3CC[C@]12C [Testosterone propionate] | 114%
